# Reference: PubChem BioAssay AID2675 (National Center for Advancing Translational Sciences (NCATS), 2010)
# About 100 (0.036%) of roughly 280,000 compounds were called active. This list was built around the results that the source calls inconclusive (neither active nor inactive); the mix of calls is not that of the screen. The call rests on the fitted dose curve; in most records, active means well fitted inhibition curve with a large enough effect in the signal ratio, with a control signal flat (not every such curve was filed as active); inconclusive means small, poorly fitted or top-dose-only effect, or effect the other way, or a change in a side signal; inactive means no such curve, though single readings can be large or run the other way; the % refers to the signal ratio. A potency beside an inconclusive call is a rough fit, not a confirmed value. “Side channel” marks fits to a control or component signal instead of the main read-out.
# Target: Muscleblind-like protein 1 (Homo sapiens) (UniProt Q9NR56)
# Test: qHTS Assay for Inhibitors of MBNL1-poly(CUG) RNA binding
# Conditions: TR-FRET MBNL1-His/biotin-(CUG)12 binding, 665/545 ratio; series mostly up to 57.5 µM
# Summary of the method: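 TR-FRET between His-tagged MBNL1 and biotin-(CUG)12 RNA, detected with Tb anti-His antibody (0.055 ng/ul) and streptavidin-XL665 (5 nM), 60 min at room temperature. Compounds titrated 92 nM to 58 uM; 665/545 nm ratio normalized to buffer and complex controls.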
# Potency means the concentration at half of the fitted maximal effect; tags describe the fitted curve by direction and shape or compound fluorescence and quenching.
# Sequence of UniProt Q9NR56 (Q9NR56 whole entry, looked up): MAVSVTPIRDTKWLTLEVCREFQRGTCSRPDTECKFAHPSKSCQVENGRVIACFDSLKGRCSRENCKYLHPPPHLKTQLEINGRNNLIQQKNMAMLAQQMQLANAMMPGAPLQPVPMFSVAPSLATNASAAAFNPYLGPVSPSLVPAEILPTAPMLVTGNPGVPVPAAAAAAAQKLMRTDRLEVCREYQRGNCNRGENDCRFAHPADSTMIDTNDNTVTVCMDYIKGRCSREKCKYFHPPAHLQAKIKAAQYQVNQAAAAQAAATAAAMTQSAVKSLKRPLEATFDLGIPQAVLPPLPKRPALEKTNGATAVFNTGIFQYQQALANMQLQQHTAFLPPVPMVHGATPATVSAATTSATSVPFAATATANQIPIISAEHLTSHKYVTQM
row,Compound,Potency
1,O=C(CN1C(=O)S/C(=C\c2ccccc2F)C1=O)NCCCn1ccnc1,"inconclusive: 14.1 µM [quencher, side channel, partial curve]"
2,CCOC(=O)N=S(N)(=O)c1ccccc1 (centres undefined),inactive
3,CCOc1ccc(-n2c(=O)c3ccccc3c3ccccc3c2=O)cc1,inactive
4,CC(=O)c1sc(-c2cccc(Cl)c2)nc1C,"inconclusive: 22.4 µM [quencher, side channel, partial curve]"
5,CCOC(=O)CNC(=O)c1sc2nc(C)cc(C)c2c1N,"inconclusive: 15.8 µM [quencher, partial curve, poor fit]"
6,CCCCNC(=S)N/N=C1\C(=O)c2cccc3cccc1c23,inactive
7,C=CCNC(=S)Nc1sc2c(c1C(N)=O)CCCC2,inactive
8,Cc1ccc(-c2nnc(Nc3ccc4c(c3)OCO4)c3ccccc23)cc1S(N)(=O)=O,"inconclusive: 14.1 µM [quencher, side channel, partial curve]"
9,CCC(CC)c1nnc(NC(=O)CS(=O)(=O)c2ccccc2)s1,inactive
10,CC1(C)OC(=O)C(=NNc2ccc(O)cc2)C(=O)O1,"inconclusive: 31.6 µM [quencher, partial curve]"
11,CC1CCN(CCC(=O)N/N=C/c2ccc([N+](=O)[O-])cc2)CC1,"inconclusive: 3.98 µM [quencher, side channel, full curve]"
12,NC(=O)C1(NC(=O)[C@@H]2CC3(CC(c4cccc(NC(=O)c5cc([N+](=O)[O-])cc([N+](=O)[O-])c5)c4)=NO3)CN2C(=O)c2ccccc2)CC1 (some centres undefined),"inconclusive: 7.94 µM [quencher, side channel, partial curve]"
13,COc1ccc(/C=C2\SC(=S)N(CCC(=O)N3CCCCC3CCO)C2=O)cc1 (centres undefined),"inconclusive: 15.8 µM [quencher, side channel, partial curve]"
14,O=[N+]([O-])c1cc2c(cc1CN1CCN(CCOCCO)CC1)OCO2,"inconclusive: 17.8 µM [quencher, side channel, partial curve]"
15,COc1ccc(Cl)cc1C(=O)NCc1cnn(C)c1C,"inconclusive: 79.4 µM [inhibitor, single point]"
16,O=C(Nc1cccc(O)c1)c1ccccc1[N+](=O)[O-],"inconclusive: 12.6 µM [quencher, side channel, partial curve]"
17,COc1ccc2nc(C)cc(SCC(=O)NNC(=O)COc3ccccc3)c2c1,inactive
18,Cc1cccc(Cn2c(SCCN3CCCCC3)nc3c2c(=O)[nH]c(=O)n3C)c1,inactive
19,Cc1ccc(Sc2ncccc2C(=O)O)cc1C,"inconclusive: 7.08 µM [fluorescent, side channel, full curve]"
